Measured values reported in the RNAGym collection of RNA variant scans (doi:10.7554/elife.90254).
Read counts are not given, so values of variants with three or more changes are uncertain.

B1: OR4K15 (parent)
chain: GUUAACGGUCAUAGGCCAUGGAAACUAGGAGCACCAUUUCGCUGCCAGUGAAGAAAUGAACAAAGAAAAUCUGGGCCAGGCAGGCAUCAAAAGAAAUAGUCUUGCGCUCAACCAGAAAGUCUGUAAUCAUUUUAAGGGUA

Variants of: B1
Test: self-cleavage, relative activity (ratio to wild type); higher = more cleavage; in vitro, sequencing; the parent is a self-cleaving ribozyme

Row | Variant | self-cleavage
1 | U39C G41A A90G C113A | 0.01
2 | U38C A69U A82G A86G A91G | 0.03
3 | U39C A89G A118U | 1.1
4 | U38C A60G A78U U87C A118G U127C | 0.01
5 | U38C A60U A82U U131C | 0.24
6 | U37G U87C A98G U103C | 0.09
7 | U38A U49C U97G | 1.09
8 | U38C A64U A78G | 0.6
9 | U38A U39A A98G U100C | 1.55
10 | U38C A67G C85A A86G A117G | 0.58
11 | U38C U49C A64G U122G | 1.15
12 | U38C A68G A82G A86G | 0.49
13 | U38C A54G U131C | 0.46
14 | U39C A111G U130C | 0.01
15 | U39C A90G U108C | 0.02
16 | U38C A110G U127C | 0.08
17 | U39C A52U A62G A67C A91G | 1.58
18 | U38C G83U U100A G123A U127C | 0.04
19 | U39C C45A U49C U57A U108C | 0.02
20 | U38C A51G A55G A94U | 2.28
21 | U38C U43C U87C A92G | 1.09

Row | Variant | self-cleavage
22 | U38A A59G A67G A82G A125G A135G | 0.11
23 | U38C U43C U108C A110G A114U | 0.01
24 | U38C U43A A118G U139A | 1.03
25 | U39C A78U U87C U102G | 0.03
26 | U38C U49A A89G | 1.5
27 | U37C U57C A69U | 1.7
28 | U38A A94G U103A A114C U122C | 0.04
29 | U39A A94G A126G | 1.86
30 | U39C A55G A118G | 2.25
31 | U38C A66G A78U | 0.21
32 | U37C U124C C128U | 1.36
33 | U39C A55G A91G A96G | 1.54
34 | U38C A91G A95G | 1.6
35 | U37C U57C A62U A82G A118G | 0.14
36 | U37C U70A U127C | 0.37
37 | U38C A47G U72C U139C | 0.17
38 | U38C U72C U122C | 0.16
39 | U39C A60C A64G | 1
40 | U39C A47U U87A | 0.86
41 | U39C A92G A114U | 0.04
42 | U39C A60G U122A | 0.82

Row | Variant | self-cleavage
43 | U39A A78U G104A | 0
44 | U39A A90G A110G | 0.18
45 | U39A A52U A60G A110G | 0.19
46 | U38C A64G A110G U122A | 0.1
47 | U39C A47G G74A | 0.24
48 | U38C U70A A90G A96G C121U | 2.19
49 | U39A A47G G74A U87A | 0.3
50 | U38G A51U A56G A59U G106A | 0.03
51 | U39C A67G A126U | 0.76
52 | U39A A95G A110U U122C | 1.66
53 | U38C A52G U120C | 1.63
54 | U39C A67G U87A A110G | 0.15
55 | U38C U39C A60G G99A | 0.26
56 | U38C U43C A78U | 0.37
57 | U39C G48A A114U U132C A134G | 0.01
58 | U39A A55G A67G G75C U87C U130C | 0.09
59 | U38C A92G A111G | 0.02
60 | U38C A62C A92G G123A | 2.07
61 | U39C C105G U131A | 0.06
62 | U38C A89G A92G A110G C128A | 0.2
63 | U38A A52G A118G | 1.2

Row | Variant | self-cleavage
64 | U39C A118G U122G | 1.78
65 | U39C A66G A126G | 0.39
66 | U38C A64G U70C U102C | 2.16
67 | U37C U102C U122C | 1.97
68 | U39C A55G U100C A114U U132C A135G | 0.03
69 | U39C A94G A135G | 1.38
70 | U38C A59G U124C | 0.61
71 | U38G A54U A68G C77U A126G | 1.14
72 | U38C A96G U127C | 1.22
73 | U38C A52G A60G U103C C109G | 0.05
74 | U38C A52U A68G | 1.46
75 | U38C U49C A126G A135U | 1.07
76 | U38G A51G A98G | 0.73
77 | U39C U43A A51G A64U | 1.72
78 | U38A A59G U103C | 1
79 | U38C A60U G104A | 0.07
80 | U38C A52G A62G | 1.13
81 | U38C A63G A89C A117G | 1.59
82 | U38C U57C A64G | 0.57
83 | U38C A64G A67G A82U U87C U120C | 0.11
